Assay results as given in the supplement of paper PMC11417369.
± gives the standard deviation of the averaged measurements. The list shows a part of the results.

Test system: PfAP2-LT AP2 domain (GST-tagged)
Assay: gcPBM binding intensity (ln(normalized median fluorescence intensity)); higher = stronger DNA binding
Summary of the method: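 Binding intensity is defined as the maximum Masliner-normalised natural-log median intensity across replicate spots for either probe orientation. It was measured on an Agilent 4 × 180k array of primer-extended double-stranded 36-bp intergenic genomic probes and negative controls, to which GST-tagged P. falciparum DNA-binding domains made in E. coli were applied for 1 h in 1× PBS with 1% milk, 0.2 mg/ml BSA, 0.5% salmon testes DNA and 0.03% Triton X-100. Detection was by Alexa488 anti-GST antibody and scanning at 488 nm.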

Sequence | gcPBM binding intensity (ln)
ATTCTTTTAAACAGTACACACACACCGATATATATA [CACACA_site8213] | 9.55 ± 0.3
AATATATATATATATACATGCATATATTCCTTCCTT [TGCATGCA_site890] | 9.28 ± 0.21
AATATATCATAATGATGTACAAGTAAAACCGTTACA [XGTACX_site4280] | 8.94 ± 0.4
GATCTATATATCATTACACACTTGAATTACTTAAAA [CACACA_site21] | 8.65 ± 0.35
CAAAAATACATTATAATAATATGCACAATAATAAAT [XGTACX_negctrl_site263] | 8.95 ± 0.38
ATAAAATAAAATTGGTGTACTTTTGATAAAATAAAA [XGTACX_site4264] | 8.46 ± 0.53
TTTTTTTTTTTTATTTGTACACATTTTCATATTTTT [XGTACX_site4406] | 8.92 ± 0.54
TATATTTACTCTAAGTGTACATATTATTTTATAATA [XGTACX_site2046] | 8.55 ± 0.47
TATATATATATGTGCACACATAAAGATATTATTTTT [CACACA_site3733] | 9.67 ± 0.34
AAAAGTAAAAAAAGCACACACGAAAAAAAATAAAAA [CACACA_site5264] | 9.15 ± 0.55
TCCATAAATAATTGTAGTACACATACTATGTGACAT [XGTACX_site7268] | 8.88 ± 0.36
TATTAAAAAAAAAAATAAAAAAATAAAATAAAATAA [CACACA_negctrl_site580] | 8.35 ± 0.56
TATTTATTTATAAATGCATGTCGCTCTTTTTATTAC [TGCATGCA_site626] | 9.01 ± 0.4
ATATATATATATATGTGTACATATAAGATAGAAGAA [XGTACX_site3198] | 9.37 ± 0.4
TTATGCATAAAAGGTGGTACTCCGTATATACATTCT [XGTACX_site4354] | 8.87 ± 0.42
AACTATAAAAGTTTTACACACTGTTTTTAAATAATG [CACACA_site7686] | 8.67 ± 0.44
ATTATTATAGATATAACACACATAATTACATACTTA [CACACA_site6837] | 8.8 ± 0.4
TTTCTTTGTATTTATAGTACATATTTTAATAACTGC [XGTACX_site6673] | 8.76 ± 0.54
ATAATATTTTATTATACATGCAAATTATTATATATA [TGCATGCA_site40] | 8.46 ± 0.45
TAAAAATTAAAAAGGGTGCAAAAAAAAAAAAAAAAA [GTGCAC_site9733] | 8.66 ± 0.53
TATTAATTATAAGATGCATGTGCAAAAATATGTTCC [TGCATGCA_site51] | 8.91 ± 0.33
GATTAAAATCAAAGGTGTACGCACAAATAAGTCCCA [XGTACX_site4360] | 8.98 ± 0.38

Sequence | gcPBM binding intensity (ln)
CACCCTTTGTTTTAGAGTACATATGTATATACGTAA [XGTACX_site7964] | 8.75 ± 0.45
TATATATATTTATGTACACACATATATACCTTTCAT [CACACA_site5479] | 9.23 ± 0.37
TTTCCGGTAATATGGAGATATATGTGGGTTTTTTTT [GTGCAC_negctrl_site374] | 8.99 ± 0.3
ACAAAATTTACAAAATGTACAAAGTATGTGTTTTAT [XGTACX_site6462] | 8.82 ± 0.38
AGAAAAAAGAGGGATACACACAAACATATATTTATA [CACACA_site7122] | 9.13 ± 0.45
ATATTTTTTTTTTTCACACACATTTATATTGTATTA [CACACA_site5695] | 9.4 ± 0.5
TATTAAAATATTCTCACACACCAAAATATGTATGTA [CACACA_site6565] | 8.88 ± 0.42
AAAAAAAAAAAAAAAAAAAGAAAAGAAAATAGGGTT [GTGCAC_negctrl_site421] | 8.58 ± 0.58
ATTATATTAATTTATAGTACAATATTTATATATATG [XGTACX_site4668] | 8.59 ± 0.42
TATATATTACTTTTTTGTACGAATTTTACAACTACG [XGTACX_site3473] | 8.88 ± 0.61
TTATTATTATGATTATTATGATGATTATACAACTGT [TGCATGCA_negctrl_site241] | 8.85 ± 0.35
AATATACATAACAAGGTGCAAAAAATATTGTTCATA [GTGCAC_site9499] | 9.13 ± 0.45
AGGAGGAACAAACAAAACAATAAAAATTATAATAAA [GTGCAC_negctrl_site206] | 8.78 ± 0.64
AAAAGACATTTTTTTTTATAAATACACACGTACGTG [TGCATGCA_negctrl_site281] | 8.87 ± 0.38
TTCAAAGACACAATCACACACATACATAAATATACA [CACACA_site687] | 9.44 ± 0.29
TTCCAAGAAATAATAGTGCATTATTCATTTTAATAA | 8.32 ± 0.43
ATATTATAAATTATAGGTACACACAAAAAAAAAAAG [XGTACX_site2637] | 9.04 ± 0.52
AAATATATTGCATATATACACACGTATATATATTAA [CACACA_site2759] | 8.87 ± 0.3
ATATCAAGCTATGAGAAAAAAAAAAAGAAAAAAAAA [CACACA_negctrl_site1370] | 8.45 ± 0.61
AAGTTTTCTTAAAGATGTACTTTTTAAAAATAAAAT [XGTACX_site3063] | 8.06 ± 0.4
TGATTCTTTTCAAAGTGTACAGTAATTTTTATGTAA [XGTACX_site8452] | 8.45 ± 0.47
TATATAATTCAAAAATGTACATGAAATATAAATATT [XGTACX_site7984] | 8.71 ± 0.45

Sequence | gcPBM binding intensity (ln)
TCTTCAAAGACACAATCACACACATACATAAATATA [CACACA_site8128] | 9.29 ± 0.34
AATACGTTTCAAAAATGTACACATATATCATAAATA [XGTACX_site8962] | 8.7 ± 0.41
ATCAAAAATGTTATATATATATATATATATATATAT [TGCATGCA_negctrl_site71] | 9.89 ± 0.11
GCCATTAATTTATACACACACATTATAACTTTTTAT [CACACA_site6492] | 9.36 ± 0.42
TTAAATAAAAAAATAACACACATATAAATCTATATG [CACACA_site7482] | 8.68 ± 0.38
TATCAGCAATGGAAAACATGCAAAAAATTAATATAT [TGCATGCA_site623] | 8.9 ± 0.42
TATAGCTTTCATTATACACACATCAAAAATTTAAAT [CACACA_site227] | 8.73 ± 0.42
AGTAATAAATTTTATACATGCATAAAAAAAAAAAAA [TGCATGCA_site661] | 8.69 ± 0.46
TTAAAAATCATTTAAGAACACACAAATATTTCCATT [CACACA_site8418] | 8.56 ± 0.42
AACTTGTATTTATACACACACACACTAGCTTTTTTT [CACACA_site5132] | 9.75 ± 0.26
AGAATTAAAAACAGTTGTACAAAAAGTTGTATAAAT [XGTACX_site411] | 9.07 ± 0.56
TATATTTATTTTTAATGTACATATTTAAGAAAACTA [XGTACX_site4920] | 8.3 ± 0.42
GACTCATTAAGGATTATTCCTAATGATCAAAAGAAC [CACACA_negctrl_site515] | 8.59 ± 0.38
TACATTTTAATATAAGCATGCCTTTAGTTTTTTTCT [TGCATGCA_site829] | 8.83 ± 0.48
AATACAAATATATATGCACACACATATACATACATA [CACACA_site8677] | 9.41 ± 0.35
CAATTTATTATATATGTGCACATATAATTTTACAAA | 8.7 ± 0.37
TAATTATTTTTATTGTTGCACTAGTAAAATTTTAAG [GTGCAC_site9946] | 8.39 ± 0.41
TTTCTTTAACAAGTTAAACACACATACATATATACA [CACACA_site8810] | 8.76 ± 0.45
ATCATTTCTATATAAGCACACACGTGGAATTTTTTT [CACACA_site2786] | 9.06 ± 0.46
AATAAATATAAAAATGCACACACACTAATAAAAAAA [CACACA_site8201] | 9.81 ± 0.28
CACATACAGATATATACACACAAATATAAATACACA [CACACA_site6512] | 9.52 ± 0.4
TTACTTATATGCATAGTGCAAATTTGGTAAATATCT | 8.69 ± 0.33

Sequence | gcPBM binding intensity (ln)
AAAATAAATATATTATCCACGTTGTATATATATATA [XGTACX_negctrl_site136] | 9.07 ± 0.085
TTTTTTTTTTCTTTTTTTTATTATATTAACGGAATT [GTGCAC_negctrl_site104] | 8.35 ± 0.57
CATAAAAATTGAAGCACACACACAAAAGAAATACAA [CACACA_site1112] | 9.73 ± 0.42
AAAAAGAAATACAAATAATATATATATATATATATT [TGCATGCA_negctrl_site458] | 8.97 ± 0.35
AATAAACAAATAAATAAACACACAATATATGTATAT [CACACA_site9268] | 9.12 ± 0.39
TTGTTTTCACCAAATACACACAAGCATACACCCCAT [CACACA_site2717] | 9.36 ± 0.042
ATACATAAATTTATACGTACATATATAGATACATAA [XGTACX_site675] | 8.86 ± 0.42
TTACATGCTAAAATTTGTACATATATGATAAATATT [XGTACX_site2648] | 8.62 ± 0.42
AAGTAAAATAAGTATACACACATAAATATGTAAATA [CACACA_site6467] | 9.29 ± 0.4
TTTTATTTTCGATGATGTACATTAAATTATACAGTA [XGTACX_site6053] | 8.51 ± 0.51
AAATATTACTCCTCAAGTACACATAAAAAAAAAATA [XGTACX_site2085] | 8.71 ± 0.32
AATATACAAAATAAATAAAATATATATATATATATA [CACACA_negctrl_site216] | 9.46 ± 0.3
TAAAAATTTAAGAAAACATGCATCTAACATATATAT [TGCATGCA_site342] | 8.62 ± 0.42
TATTTTTTTTGATATTGTACTTTTTTATTATTTTTT [XGTACX_site566] | 8.76 ± 0.51
AAATTATATATAAAATGTACATATGTAGGTAATTTT [XGTACX_site5047] | 9.35 ± 0.35
GAAAATATATTTAAGATGCACTTTAAAAATGTACTT | 8.57 ± 0.43
AAGTAATCATCATAAAGTACTAAATTATATTGTCAA [XGTACX_site5841] | 8.67 ± 0.37
TCTACATCTGTATATAAACACACAACAAAAATGCTT [CACACA_site9271] | 8.87 ± 0.27
GTATATATGTATGTATGTACTTATAAAGTTGCATAT [XGTACX_site5616] | 8.85 ± 0.47
TATTTATTGTGATACTTATATTATTTCATGATTAAT [CACACA_negctrl_site738] | 8.82 ± 0.4
ACTTTATTATATATTTGTACATATATTTTTAATTTC [XGTACX_site4144] | 9.06 ± 0.52
TTCTTACACAAAAAAATGAAATCAATCAAAAAAAAA [CACACA_negctrl_site869] | 8.41 ± 0.5
